Screen size: about 310,000 compounds; about 2,200 (0.71%) showed an effect of 50% or more. Effects have a minus sign here. This is one part of the list.
molecular target: human ether-à-go-go-related gene (hERG) potassium channel (human, UniProt Q12809); test: primary screen, population patch clamp on CHO cells stably expressing hERG
Sequence (Q12809 whole entry, looked up): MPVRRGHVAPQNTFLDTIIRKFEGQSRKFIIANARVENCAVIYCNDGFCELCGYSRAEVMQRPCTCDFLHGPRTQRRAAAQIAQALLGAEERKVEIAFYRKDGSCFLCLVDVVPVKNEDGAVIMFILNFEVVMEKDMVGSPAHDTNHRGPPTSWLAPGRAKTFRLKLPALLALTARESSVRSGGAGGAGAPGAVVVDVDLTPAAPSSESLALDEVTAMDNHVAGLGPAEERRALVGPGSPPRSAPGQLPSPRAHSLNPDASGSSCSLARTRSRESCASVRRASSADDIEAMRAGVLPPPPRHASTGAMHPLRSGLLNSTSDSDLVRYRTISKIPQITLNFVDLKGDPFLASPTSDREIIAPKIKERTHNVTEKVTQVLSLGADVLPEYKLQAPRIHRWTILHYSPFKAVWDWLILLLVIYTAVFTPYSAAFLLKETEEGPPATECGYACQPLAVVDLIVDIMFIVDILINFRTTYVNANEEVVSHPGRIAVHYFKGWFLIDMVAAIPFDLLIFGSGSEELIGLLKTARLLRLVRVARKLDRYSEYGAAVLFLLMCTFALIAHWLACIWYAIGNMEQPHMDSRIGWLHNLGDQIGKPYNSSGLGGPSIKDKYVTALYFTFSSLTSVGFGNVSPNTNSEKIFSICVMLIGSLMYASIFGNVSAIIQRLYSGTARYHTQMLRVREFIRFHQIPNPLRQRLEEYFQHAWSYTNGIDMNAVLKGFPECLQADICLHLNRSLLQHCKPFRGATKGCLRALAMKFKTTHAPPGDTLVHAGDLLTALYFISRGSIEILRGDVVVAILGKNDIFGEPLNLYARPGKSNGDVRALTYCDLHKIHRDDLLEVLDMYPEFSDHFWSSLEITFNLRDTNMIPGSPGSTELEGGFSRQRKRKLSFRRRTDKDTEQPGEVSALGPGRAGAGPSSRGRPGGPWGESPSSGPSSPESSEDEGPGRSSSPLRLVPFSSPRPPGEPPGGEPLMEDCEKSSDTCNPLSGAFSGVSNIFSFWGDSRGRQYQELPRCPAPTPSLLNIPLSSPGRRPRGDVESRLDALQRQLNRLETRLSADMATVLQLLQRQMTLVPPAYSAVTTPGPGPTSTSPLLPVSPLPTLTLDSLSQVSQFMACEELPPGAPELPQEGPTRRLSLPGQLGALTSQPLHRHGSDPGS

| SMILES | hERG current change (%, negative = inhibition) at 1uM [%] |
| --- | --- |
| Cc1nnc(SCC(=O)N2CCOCC2)[nH]c1=O | 5.99 |
| Cc1ccc(S(=O)(=O)N2CCCCC2)cc1NC(=O)CN1CC=C(c2ccccc2)CC1 | -0.529 |
| COc1ccccc1CC(=O)Nc1ccc2c(c1)CCC2 | 18.2 |
| O=C(Nc1ccnc(-c2cccnc2)n1)c1ccc(Cl)cc1 | -11 |
| Cc1ccc(C)c(C(=O)COc2ccccc2[N+](=O)[O-])c1 | 17.4 |
| Cc1ccc(S(=O)(=O)N2CCCCC2C(=O)O)s1 (stereo not shown) | 12.2 |
| Cc1ccc(C)c(NC(=S)NC(C)C(c2cccs2)N2CCOCC2)c1 (stereo not shown) | 12.2 |
| C=CC[C@@H]1C=C[C@H](O/N=C/[C@@H](NS(=O)(=O)c2ccc(C)cc2)[C@H](C)/C=C/CC(=O)OC)[C@@H](CO)O1 | 6.46 |
| Cc1ccc(/C=N/Nc2nc3ccccc3s2)o1 | -2.87 |
| CCCC(=O)Nc1ccccc1NC(=O)c1ccc(OC(C)=O)cc1 | 6.27 |
| O=C(Nc1ccc(-c2nc3ccccc3o2)cc1)C1CCCO1 (stereo not shown) | -5.07 |
| Cc1cc(C(=O)N/N=C/c2ccc3c(c2)OCO3)c2ccccc2n1 | 13.9 |
| Cc1ccc(C(CNS(=O)(=O)c2ccc(F)cc2)N2CCN(C)CC2)cc1 (stereo not shown) | -18.4 |
| CCn1c(C)c(C)c2cc(C(=O)NCCN3CCCCCC3)ccc21 | -0.0068 |
| CCOC(=O)c1cn2nc(SCc3ccccc3)nc2nc1C | -1.9 |
| Cc1ccc(NC(=O)C2CCCN2C(=O)NCc2ccccc2)cc1 (stereo not shown) | 9.84 |
| CCCCCc1nnc(NC(=O)CS(=O)(=O)Cc2ccccc2)s1 | 0.943 |
| Cc1ccc(/C=C2\SC(=S)N(CC(=O)Nc3ncc(Cc4ccccc4Cl)s3)C2=O)cc1 | -0.392 |
| COc1ccc(Cc2nnc(SCC(=O)c3ccc(OC)cc3)o2)cc1 | 14.7 |
| Cc1c(C)n(Cc2ccccc2)c2ccc(C(=O)NCCCN3CCOCC3)cc12 | 16 |
| COc1cccc(CN2CC(C(=O)N(C)CC3CCOCC3)CCC2=O)c1 (stereo not shown) | 12.6 |
| Cn1ncc([N+](=O)[O-])c1C(=O)N/N=C/c1ccc(F)cc1 | -3.01 |

| SMILES | hERG current change (%, negative = inhibition) at 1uM [%] |
| --- | --- |
| O=S(=O)(Nc1cccc(-c2ccc3nncn3n2)c1)c1ccc(Cl)s1 | 0.287 |
| CCN(CC)S(=O)(=O)c1ccc(OC)c(NS(=O)(=O)Cc2ccccc2)c1 | 6.87 |
| O=C1N[C@@H](Cc2ccccc2)C(=O)N2[C@@H]1C[C@]1(Br)c3ccccc3N(S(=O)(=O)c3ccccc3)[C@H]21 | 16 |
| Cc1cccc(NC(=S)Nc2ccccn2)c1C | 5.09 |
| COCc1ccc(C(=O)N(C)CC2CCCN(CCc3ccc(Cl)cc3)C2)o1 (stereo not shown) | -65.1 |
| CCCOc1ccc(-c2nc(OCC)c3ccccc3n2)cc1 | 10.3 |
| CCn1c(=NC(=O)c2cccc(N3C(=O)CCC3=O)c2)sc2c(C)ccc(OC)c21 | 23 |
| O=C(NC(=S)Nc1ccccc1N1CCOCC1)c1cccc([N+](=O)[O-])c1 | 17 |
| O=C(O)c1cc(-c2cccs2)nc2ccc(F)cc12 | 11.4 |
| CCc1ccccc1NC(=O)c1ccccc1Sc1ccc([N+](=O)[O-])cc1Cl | 3.11 |
| COc1cc(Cl)ccc1OCc1cc(C(=O)N2CC[C@@H]3CCCC[C@H]3C2)no1 | 17.2 |
| O=C(NCc1ccccn1)c1ccc(N2CCCC2)c([N+](=O)[O-])c1 | 9.04 |
| COC(=O)C(C)(C(=O)OC)c1ccccc1[N+](=O)[O-] | 11 |
| Cn1c(=O)c2cc(S(=O)(=O)NCCC(=O)NC3CCCCCC3)ccc2n(C)c1=O | 1.35 |
| COC(=O)NNC(=O)COc1ccccc1C | 7.96 |
| C=CCC(C)(NCc1ccccc1)c1ccco1.Cl (stereo not shown) | 13.3 |
| CCN1CCN(c2ccc(S(=O)(=O)N3CCCCC3)cc2NC(=O)Cc2c(Cl)cccc2Cl)CC1 | 0.891 |
| CCOC(=O)c1c(-n2cnnn2)sc(C)c1C | -0.545 |
| COc1ccc(/C=N/NS(=O)(=O)c2ccc(C)cc2)cc1 | 9.73 |
| CCOc1ccc(/C=C/C(=O)c2ccccc2)cc1 | 12.9 |
| COc1ccc(NC(=O)CSc2n[nH]c(=O)n2C2CC2)cc1OC | 8.43 |
| CC(=O)c1sc(-c2ccccc2)cc1N | 9.14 |

| SMILES | hERG current change (%, negative = inhibition) at 1uM [%] |
| --- | --- |
| O=C(Nc1cccc2c1CCCC2)C1CCN(C(=O)NC2CCCCC2)CC1 | 7.73 |
| CC(=O)NS(=O)(=O)c1cccnc1Nc1cccc(Cl)c1C | 8.79 |
| CCOC(=O)C1(Cc2ccccc2)CCN(Cc2ccc(C3CCCCO3)s2)CC1 (stereo not shown) | -1.26 |
| CC1CCN(C(=O)C2CCCN(S(C)(=O)=O)C2)CC1 (stereo not shown) | 15.8 |
| Nc1ccnc(C(F)(F)F)c1C(=O)c1ccccc1 | 4.73 |
| O=C1OC(c2ccc(Cl)cc2)=N/C1=C\N1CC2CC(C1)c1cccc(=O)n1C2 (stereo not shown) | -38.4 |
| Cc1cc(C)c(CN2CCN(C(=O)Cn3ccc(NC(=O)OCc4ccccc4)nc3=O)CC2)c(C)c1 | 2.23 |
| Fc1ccccc1CSc1nnc(-c2cccnc2)o1 | 21 |
| C#Cc1ccc([C@H]2C=C(C(=O)N3CCOCC3)O[C@@H](OCC)[C@@H]2CCCO)cc1 | 10.3 |
| CCOc1nc(NC2CCCC2)nc(N2CCC(C)CC2)n1 | 11.6 |
| CC(=O)N1c2ccc(S(=O)(=O)N3CCC(C(=O)NCc4ccccc4)CC3)cc2CC1C (stereo not shown) | 2.71 |
| CCCCC(=O)Nc1ccc(C(=O)NNC(=S)NC(=O)c2ccccc2[N+](=O)[O-])cc1 | 11.6 |
| COc1ccc(NC(=O)CC2SC(=NCC3CCCO3)NC2=O)cc1 (stereo not shown) | 11.9 |
| CC(C)CC(=O)Nc1nnc(SCC(=O)NCc2ccc3c(c2)OCO3)s1 | 10.4 |
| COc1ccccc1NC(=O)N1CCN(c2ccc3nncn3n2)CC1 | -9.4 |
| CCOC(=O)c1c(S(=O)(=O)NCCc2ccc(OC)c(OC)c2)c(C)n(C)c1C | 6.07 |
| COc1ccc(/C=C2\N=C(c3ccccc3)NNC2=O)cc1 | 8.64 |
| CCOC(CCNC(=O)c1cn(CC(C)C)c(=O)c2c1c1ccccc1n2C)OCC | 3.25 |
| CC1=CC(C)(C)N2C(=O)C3(C(C#N)=C(N)Oc4cc(O)ccc43)c3cccc1c32 (stereo not shown) | 15.9 |
| CC(C)(C)OC1NS(=O)(=O)OCC1NCOC(Cl)(Cl)Cl (stereo not shown) | 15.2 |
| Cc1cc([N+](=O)[O-])ccc1NC(=O)c1cccc(NC(=O)C(C)C)c1 | 16 |
| Cc1[nH]n(-c2ccc(Br)cc2)c(=O)c1C=Nc1ccc(S(=O)(=O)Nc2nccs2)cc1 | 14.4 |

| SMILES | hERG current change (%, negative = inhibition) at 1uM [%] |
| --- | --- |
| CN1CCN(S(=O)(=O)c2ccc(NC(=O)c3ccco3)cc2)CC1 | -6.93 |
| O=C(NCCc1nc(-c2ccccc2)no1)c1ccccc1 | 1.15 |
| Cc1ccc(CNc2ncc(-c3ccccc3)n2C)o1.O=C(O)C(=O)O | 1.34 |
| COc1ccccc1NC(=O)CCC(=O)OCc1cccc([N+](=O)[O-])c1 | 16 |
| CC(C)(C)C(=O)Cn1c(=O)n(CC2CCCO2)c(=O)c2ccccc21 (stereo not shown) | -0.876 |
| O=C(CC1SC2=NCCN2C1=O)Nc1ccc(Cl)cc1 (stereo not shown) | 9.83 |
| Cc1cc(Cl)ccc1OCC(=O)N(Cc1cccs1)C1CCS(=O)(=O)C1 (stereo not shown) | 10.4 |
| CC(C)CN(C(=O)COC(=O)CNC(=O)c1sc2ccccc2c1Cl)C1CCS(=O)(=O)C1 (stereo not shown) | 6.41 |
| CC(=O)Nc1ccc(/C(C)=N/NC(=O)c2ccc(CN3CCOCC3)cc2)cc1 | 10.9 |
| CCOC(=O)C1CCCN(c2c(N3CCN(c4ccccn4)CC3)c(=O)c2=O)C1 (stereo not shown) | -8.35 |
| O=S(=O)(Cc1ccc(Cl)cc1)Nc1ccc(Cl)cn1 | 6.83 |
| COc1ccc(S(=O)(=O)Oc2cccc(C(=S)N3CCOCC3)c2)cc1 | 5.8 |
| S=C(NCc1ccccc1)N1CCCCC1 | 14.5 |
| CC1=C(C(=O)Nc2ccc(C(=O)NCCC(C)C)cc2)SCCO1 | 12.4 |
| Cc1nn(CC(=O)N2CCCc3ccccc32)c(C)c1[N+](=O)[O-] | 7.9 |
| O=C(CNC(=O)c1cccs1)N=Nc1c(O)[nH]c2ccc([N+](=O)[O-])cc12 | 11.9 |
| Cc1nc2c3cc(F)ccc3n(CCN3CCCCC3)c2s1.Cl | -34.2 |
| CN(C)c1ccc(C(=O)N2CCCC2)cc1 | 10 |
| CCn1ncc(Br)c1C(=O)Nc1ccc(OC(F)(F)F)cc1 | 13.4 |
| c1ccc(Nc2c3c(nc4ncnn24)CCC3)cc1 | 12.3 |
| CCn1c(SCC(=O)Nc2cccc(O)c2)nc2c1c(=O)n(C)c(=O)n2C | 14.7 |
| CC(C)[C@H](NS(=O)(=O)c1ccccc1)C(=O)OCC(=O)NC(=O)c1cccn1C | -6.91 |

Reference: publication PMC4336329 (PLoS ONE, 2015)
